PubChem BioAssay AID485313 (National Center for Advancing Translational Sciences (NCATS), 2010)
About 7,600 (2.4%) of roughly 320,000 compounds were called active. The shares of active, inactive and inconclusive entries below differ from those in the screen. Calls come from the whole dose curve; as a rule, active = well fitted activation curve with a large enough effect; inconclusive = small, poorly fitted or top-dose-only effect; inactive = no such curve, though single readings can be large or run the other way. Potencies of inconclusive entries are doubtful fits and often do not repeat.

Assay: qHTS Assay for NPC1 Promoter Activators; note: nearly all actives have a fitted effect of over 60% in size;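 for activation: reporter is driven by a mutant NPC1 promoter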
Conditions: Huh7 NPC1 promoter luciferase reporter, 24 h; series mostly up to 9.22 µM
Summary of the method: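 Compounds in DMSO were transferred onto Huh7 NPC1-luciferase reporter cells pre-incubated 2 h; after 24 h at 37 °C, Amplite reagent was dispensed and luminescence recorded 10 min later.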
Potency is the fitted concentration of half-maximal effect; tags give direction and shape of the fitted curve.

Potency, active:
COc1cccc(C(=O)Nc2nnc(C(C)C)s2)c1 3.55 µM
S=C(c1ccc(-c2cccc(Cl)c2)o1)N1CCOCC1 3.16 µM
Nc1nc2nn(-c3ccccc3)nc2c(=O)[nH]1 2 µM
Cc1cc(NC(=O)c2cccc(COc3ccc(Br)cc3)c2)no1 0.355 µM
Cc1cccc(NC(=O)c2onc3c2CCCC3)c1C 4.47 µM
Clc1ccccc1-c1nc2ccccc2[nH]1 2.82 µM
C=CCn1c(NC(=O)c2ccc(C)cc2)nc2ccccc21 2.82 µM
CSCCC(NC(=O)OC(C)(C)C)C(=O)Oc1ccc2c(=O)c(-c3ccc4c(c3)OCCO4)coc2c1 (stereo not given) 1.41 µM
Cc1cc(C)c2c(N)c(C(=O)N/N=C/c3cccs3)sc2n1 1.78 µM
O=C(N/N=C/c1cccs1)c1c[nH]c2ccccc12 3.16 µM
CC(/C=N/Nc1nc2ccccc2[nH]1)=C\c1ccccc1 0.501 µM
O=C(Nc1cccc(-c2ccc(N3CCOCC3)nn2)c1)c1ccccc1 2.82 µM
Cc1ccc(/C=C/C(=O)Nc2nccs2)o1 2.82 µM
O=C(c1cc(-c2cccc(Cl)c2)on1)N1CCCCCC1 2.51 µM
O=C(NC1CCCC1)c1cc(-c2ccccc2Cl)on1 1.58 µM

Potency, inconclusive:
COc1ccc(OCCSc2ncnc3nc[nH]c23)cc1 3.55 µM [activator, partial curve]
c1coc(-c2nnc(-c3cccs3)o2)c1 3.16 µM [activator, partial curve]
O=C(NCc1ccco1)c1ccc2nc3sc4c(c3c(=O)n2c1)CCCC4 3.55 µM [activator, single point]
C/C(=N\NC(=O)c1ccc(N/N=C(\C)c2ccc(O)cc2)cc1)c1ccc(O)cc1 4.47 µM [activator, partial curve]
COc1ccc(C(=O)Nc2ccccc2C(=O)N/N=C/c2cccc3ccccc23)cc1 0.355 µM [activator, partial curve]
Cc1cccc(C(=O)Nc2ccc3c(c2)C(=O)N(CC(C)C)C3=O)c1 3.55 µM [activator, partial curve]
O=C1C[C@H]2[C@H](CO)[C@@H](OC(=O)c3ccc(-c4ccccc4)cc3)C[C@H]2O1 3.55 µM [activator, partial curve]
O=C(NCCc1ccc(Cl)cc1)c1cccs1 2.82 µM [activator, single point]
O=[N+]([O-])c1ccc(/C=N/Nc2ccccn2)cc1 5.01 µM [activator, single point]
Cc1ccnc(NC(=O)CCC2CCCCC2)c1 2.82 µM [activator, partial curve]
CC(c1ccccc1)c1nnc(NC(=O)Nc2ccccc2F)s1 (stereo not given) 3.98 µM [activator, partial curve]
Cc1ccc(C)c(Cn2nnc(C(=O)Nc3ccc4c(c3)OCCO4)c2N)c1 2.24 µM [activator, partial curve]
CCN1CCc2nc(NC(=O)c3ccc4c(c3)OCCO4)sc2C1 3.16 µM [activator, partial curve]
COc1ccc(S(=O)(=O)N/N=C(/C)c2ccco2)cc1 3.16 µM [activator, partial curve]
CC(=O)c1ccc(NC(=O)c2cc(C)nc3ccccc23)cc1 2.51 µM [activator, partial curve]
COc1cc(/C=N/Nc2nc3ccccc3s2)cc([N+](=O)[O-])c1O 3.98 µM [activator, single point]
CCOC(=O)CNC(=O)c1sc(NC(=O)c2ccccc2F)nc1C 0.794 µM [activator, full curve]
CCCCCC(=O)N/N=C/c1ccc(N(C)C)cc1 3.16 µM [activator, single point]
COc1ccccc1OCc1ccc(C(=O)Nc2ccccc2F)cc1 3.55 µM [activator, single point]
CN(C)c1ccnc2sc(C(=O)c3ccc(Br)cc3)c(N)c12 3.98 µM [activator, partial curve]
Cc1cc2cc(NC(=O)c3ccco3)ccc2[nH]1 3.16 µM [activator, single point]
O=C(N/N=C/c1ccc(Br)cc1)c1ccc(Br)o1 3.98 µM [activator, single point]
NC(=O)C1CCCN(C(=O)c2ccc(-c3cccc(Cl)c3Cl)o2)C1 (stereo not given) 5.62 µM [activator, single point]
CCc1ccc2oc(-c3ccc(NC(C)=O)cc3)nc2c1 0.447 µM [activator, full curve, poor fit]
COc1ccccc1OCc1nc2ccccc2s1 5.62 µM [activator, single point]
O=C(COc1ccccc1)Nc1nc2ccccc2[nH]1 3.16 µM [activator, partial curve]
Cc1ccc(S(=O)(=O)/N=C(/NNC(=O)c2cccc(Cl)c2)c2ccccc2)cc1 3.16 µM [activator, partial curve]
CC1(C)NC(=O)N(CC(O)CN(c2ccccc2)S(=O)(=O)c2ccccc2[N+](=O)[O-])C1=O (stereo not given) 1.26 µM [activator, single point]
CCOc1ccc(C(=O)COC(=O)c2cccc(-n3cnnn3)c2)cc1 3.98 µM [activator, partial curve]
Cc1nc2ccc(-c3nc4ccc(N)cc4[nH]3)cc2[nH]1 2.82 µM [activator, single point]
COc1ccccc1C(=O)N=c1sc2c(C)ccc(OC)c2n1C 5.62 µM [activator, single point]
Nc1nnc(SCc2coc(-c3ccc(Cl)cc3)n2)s1 3.16 µM [activator, single point]
CCOC(=O)C(C)On1c(-c2ccccc2)nc2ccc([N+](=O)[O-])cc21 (stereo not given) 3.55 µM [activator, partial curve]
Cc1ccc2nc(-c3ccc(NC(=O)CN(c4ccccc4C)S(C)(=O)=O)cc3)sc2c1 2.51 µM [activator, partial curve]
CCOc1ccc(/C=N/NC(=O)c2ccccc2NC(=O)c2ccc(OC)cc2)cc1 1.12 µM [activator, full curve]
O=c1oc2ccccc2c(Nc2cc3ccccc3cc2O)c1[N+](=O)[O-] 3.55 µM [activator, partial curve, poor fit]
C=CCNC(=O)COc1ccc(Br)cc1Cl 3.16 µM [activator, single point]
CCCc1ccc(-c2cc(C(=O)NCCc3ccc(S(N)(=O)=O)cc3)c3ccccc3n2)cc1 2.51 µM [activator, partial curve]
CC1CCN(C(=O)CCc2nnc(-c3ccccc3)o2)CC1 5.62 µM [activator, single point]
CN1CCCC1CCNc1ccc2c(=O)c3ccccc3oc2c1 (stereo not given) 2.51 µM [activator, partial curve]
CCc1c(C)c2ccc(OC3CCCCC3=O)cc2oc1=O (stereo not given) 3.55 µM [activator, partial curve]

Potency, inactive:
O=C1COc2ccc(-c3csc(NCC4CCCO4)n3)cc2N1 (stereo not given)
NC(=O)c1nsc(C(=O)N(Cc2ccc(F)cc2)C(C(=O)NCC2CCCO2)c2ccc(O)cc2)c1N (stereo not given)
CCOc1ccccc1-n1nnnc1SCC(=O)O
CSc1ccc(Cl)c(C(=O)Nc2nccs2)c1
Cc1ccc(-c2cc(C(=O)Nc3ccc(S(=O)(=O)Nc4nc(C)cc(C)n4)cc3)c3ccccc3n2)cc1
CC1(C)CC2CC(C)(CN2C(=O)c2ccc([N+](=O)[O-])cc2[N+](=O)[O-])C1 (stereo not given)
CCNC(=S)NNc1nc(N2CCCCC2)nc(N2CCOCC2)n1
COc1ccc(S(=O)(=O)N2CCCCCC2)cc1C(=O)Nc1ccc(C(=O)N(C)C)cc1
Nc1nc(CSc2n[nH]c(-c3ccccc3)n2)nc(Nc2ccccc2)n1
CC1CCCC(NC(=O)C2CCN(S(=O)(=O)c3cccc4nonc34)CC2)C1C (stereo not given)
O=C(CNC(=O)c1ccccc1O)N/N=C/c1cc(Br)ccc1OC(=O)/C=C/c1ccco1
COc1ccc2nc(-n3c(O)c(C4=c5ccccc5=NC4=O)[nH]c3=S)sc2c1
COCCN(C(=O)CNC(=O)c1cccs1)C(C(=O)NC1CCCCC1)c1ccco1 (stereo not given)
Cc1ccc(C)c(N2N=C(C(=O)Nc3ccc(S(=O)(=O)N4CCCC4)cc3)CCC2=O)c1
CN(Cc1nc(-c2ccccn2)no1)S(=O)(=O)c1ccc(Br)cc1
CCOc1ccc(Nc2nc(N)nc(CCl)n2)cc1
NS(=O)(=O)c1cccc(NC(=O)COC(=O)CNC(=O)c2ccc(-c3ccccc3)cc2)c1
CC(=O)c1ccc(NC(=O)C2=CC(c3ccco3)=NS(=O)(=O)N2C)cc1
CC(C)C(=O)Nc1cccc(C(=O)Nc2nncs2)c1
